{"source": "PubChem BioAssay AID686978", "about": "(National Center for Advancing Translational Sciences (NCATS), 2013)", "note": "Values joined by “and” are separate entries in the source; they are usually repeats but may differ in a detail not shown here. Equal values may be shown once. In all, about 420,000 compounds went through this assay and about 64,000 (15%) were called active. The shares of active, inactive and inconclusive entries below differ from those in the screen. Calls come from the whole dose curve; as a rule, active = well fitted inhibition curve with a large enough effect; inconclusive = small, poorly fitted or top-dose-only effect; inactive = flat fitted curve, though single readings scatter. A potency beside an inconclusive call is a rough fit, not a confirmed value. % is set by controls: 0 for no effect and ±100 for the full control effect; potency is the fitted concentration of half-maximal effect; tags give direction and shape of the fitted curve.", "data": [{"test": "qHTS for Inhibitors of human tyrosyl-DNA phosphodiesterase 1 (TDP1): qHTS in cells in absence of CPT; note: nearly all actives have a fitted effect of over 55% in size", "details": "DT40 Tdp1-/- hTDP1 cells, no CPT, ATP luminescence, 48 h; activity change, negative = growth inhibition: at 46.2 µM (top of the series) unless noted", "outline": "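Camptothecin absent (DMSO only). Human TDP1-complemented DT40 knockout cells, 400 cells/well, 37 °C for minimum 48 hr; ATP measured via CellTiter-Glo, 30 min dark incubation, luminescence.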", "values": [{"smiles": "CC1CCCC(C)N1C(=O)COc1ccccc1F", "note": "(stereo not given)", "Potency": "inconclusive: 5.8 µM [inhibitor, single point]"}, {"smiles": "Cc1ccc(C(=O)N2CCc3ccccc32)cc1NC(=O)c1ccco1", "activity change, negative = growth inhibition": "inconclusive: -30.3% [inhibitor]"}, {"smiles": "O=C(Nc1nc(-c2ccccn2)cs1)c1ccc(Cl)s1", "Potency": "active: 0.92 µM"}, {"smiles": "Nc1nc(N)nc(-c2cccc(Cl)c2Cl)n1", "activity change, negative = growth inhibition": "inactive: 12.2%"}, {"smiles": "COc1ccc(CNc2oc(-c3ccc(COc4ccc(OC)cc4)o3)nc2C#N)cc1", "Potency": "inconclusive: 32.6 µM [inhibitor, single point]"}, {"smiles": "Cc1cc(C)n2nc(-c3sccc3-n3c(C)ccc3C)cc2n1", "Potency": "active: 16.4 µM"}, {"smiles": "Cc1ccc(Cl)cc1Nc1nc(N2CCOCC2)nc(N2CCOCC2)n1", "Potency": "inconclusive: 29.1 µM [inhibitor, single point]"}, {"smiles": "CN(CC(=O)Nc1ccc(S(=O)(=O)N2CCCC2)cc1)CC(=O)Nc1cccc(F)c1", "Potency": "active: 23.1 µM"}, {"smiles": "O=C(NCCC(c1ccccc1)c1ccccc1)c1cnccn1", "Potency": "inconclusive: 18.4 µM [inhibitor, single point]"}, {"smiles": "CCOC(=O)C1=CC[C@@H](c2ccccc2)N(S(=O)(=O)c2ccc(C)cc2)[C@H]1c1cccc(OC)c1", "Potency": "inconclusive: 29.1 µM [inhibitor, single point]"}, {"smiles": "CCOc1ccc2nc(SCC(=O)Nc3ccc4[nH]c(=O)[nH]c4c3)[nH]c2c1", "activity change, negative = growth inhibition": "inactive: 3.05%"}, {"smiles": "Cc1onc(-c2ccc(Cl)cc2Cl)c1C(=O)/C=C/N(C)C", "Potency": "inconclusive: 14.6 µM [inhibitor, partial curve, poor fit]"}, {"smiles": "O=C(Nc1ccc([N+](=O)[O-])cc1)c1cc(-c2ccccn2)nc2c(Cl)cccc12", "Potency": "inconclusive: 16.4 µM [inhibitor, single point]"}, {"smiles": "CCc1ccccc1NC(=O)c1cc(=O)c2ccccc2o1", "Potency": "inconclusive: 20.6 µM [inhibitor, single point]"}, {"smiles": "Cc1ccccc1NC(=O)C1CCN(S(=O)(=O)c2ccc3c(c2)NC(=O)C(C)S3)CC1", "note": "(stereo not given)", "activity change, negative = growth inhibition": "inactive: -9.14%"}, {"smiles": "COC1CCN(Cc2c(C(=O)N3CCN(C4CCCCC4)CC3)nc3ccccn23)CC1", "activity change, negative = growth inhibition": "inactive: 12.7%"}, {"smiles": "O=C(Cc1ccc(NC(=O)C2CCCN(C(=O)CCc3ccccc3)C2)cc1)Nc1cccc(C(=O)N2CCCCC2)c1", "note": "(stereo not given)", "Potency": "inconclusive: 18.4 µM [inhibitor, single point]"}, {"smiles": "Cc1onc(-c2ccccc2)c1C(=O)Nc1nnc(N2CCCCCC2)s1", "activity change, negative = growth inhibition": "inconclusive: -32.8% [inhibitor]"}, {"smiles": "O=C(Nc1nc2ccc(C(=O)N3CCCCC3)cc2s1)C1CCCCC1", "Potency": "active: 4.11 µM"}, {"smiles": "CN1CCN(C(=O)C2=C[C@@H](c3ccccc3)C[C@@H](OCCCCO)O2)CC1", "activity change, negative = growth inhibition": "inactive: -10.2%"}, {"smiles": "O=C(CSc1nnc(-c2ccc(C(F)(F)F)cn2)o1)Nc1cccc(Cl)c1", "activity change, negative = growth inhibition": "inactive: -11.3%"}, {"smiles": "COCC1CCCCC1OS(N)(=O)=O", "note": "(stereo not given)", "activity change, negative = growth inhibition": "inactive: 7.94%"}, {"smiles": "Cc1cc(C)n2nc(C(=O)Nc3cc(S(=O)(=O)N4CCCCC4)ccc3C)nc2n1", "Potency": "inconclusive: 20.6 µM [inhibitor, single point]"}, {"smiles": "NS(=O)(=O)c1ccc(N2C(=O)C3C4CC(C(Br)C4Br)C3C2=O)cc1", "note": "(stereo not given)", "activity change, negative = growth inhibition": "inactive: -2.75%"}, {"smiles": "Cc1csc2c(NCCCN3CCOCC3)ncnc12", "activity change, negative = growth inhibition": "inactive: 0.521%"}, {"smiles": "CN(C)c1ccc(C(=O)/C=C/c2ccco2)cc1", "Potency": "inconclusive: 29.1 µM [inhibitor, single point]"}, {"smiles": "CCc1noc2c1/C(=N\\O)CC(c1ccccc1)C2", "note": "(stereo not given)", "Potency": "active: 16.4 µM"}, {"smiles": "COc1ccc(-c2c(C(=O)c3ccc(Br)cc3)[nH]c(N)c2C(=O)c2ccccc2)cc1OC", "Potency": "active: 20.6 µM"}, {"smiles": "O=C(NCc1ccco1)C(c1cccs1)N(Cc1ccccc1)C(=O)Cn1nnc2ccccc21", "note": "(stereo not given)", "Potency": "inconclusive: 20.6 µM [inhibitor, single point]"}, {"smiles": "Cc1cccc(NC(=O)Cn2c(=O)oc3cc(S(=O)(=O)NC4CCCC4)ccc32)c1", "Potency": "inconclusive: 13 µM [inhibitor, partial curve]"}, {"smiles": "COc1ccc2c(C)c(CCC(=O)NCCCN3CCCC3=O)c(=O)oc2c1C", "activity change, negative = growth inhibition": "inactive: -3.87%"}, {"smiles": "CCOC(=O)c1ccc(N2C(=O)c3n[nH]c(C)c3C2c2ccc(O)cc2)cc1", "note": "(stereo not given)", "Potency": "inconclusive: 29.1 µM [inhibitor, single point]"}, {"smiles": "CN(C)S(=O)(=O)c1cc(C(=O)NCCCn2ccc3ccccc32)ccc1Cl", "Potency": "inconclusive: 29.1 µM [inhibitor, single point]"}, {"smiles": "CCN(CC)C(=O)N1CCN(Cc2ccc3c(c2)OCO3)CC1", "activity change, negative = growth inhibition": "inactive: 0.0529%"}, {"smiles": "CCOCCCNC(C(=O)Nc1ccc(OC)c(Cl)c1)c1ccccc1", "note": "(stereo not given)", "Potency": "inconclusive: 25.9 µM [inhibitor, single point]"}, {"smiles": "Cc1nnc(SCC(=O)NNC(=O)c2ccc(Cl)cc2)s1", "activity change, negative = growth inhibition": "inactive: -0.451%"}, {"smiles": "Cc1ccc(N(C(=O)CCl)C(C(=O)NC2CCCCC2)c2cccnc2)cc1C", "note": "(stereo not given)", "Potency": "active: 1.64 µM"}, {"smiles": "Cc1cc(C)c(OCC(=O)N(Cc2cccc(F)c2)Cc2ccco2)c(C)c1", "Potency": "active: 18.4 µM"}, {"smiles": "COc1ccc(C2CC(c3c(O)cc(C)oc3=O)=NCCS2)c(OC)c1", "note": "(stereo not given)", "Potency": "active: 0.0206 µM"}, {"smiles": "O=C(NC1=NC2CCCCC2N1)c1ccccc1", "note": "(stereo not given)", "Potency": "inconclusive: 23.1 µM [inhibitor, partial curve]"}, {"smiles": "CSc1ncc(Cl)c(C(=O)Nc2cccc(C)c2)n1", "activity change, negative = growth inhibition": "inactive: -26%"}, {"smiles": "CCCc1cc(NCCCCO)n2c(nc3ccccc32)c1C#N", "Potency": "inconclusive: 29.1 µM [inhibitor, single point]"}, {"smiles": "O=C(Nc1ccccc1)N1CCCN(c2nccc(C(F)(F)F)n2)CC1", "Potency": "inconclusive: 20.6 µM [inhibitor, single point]"}, {"smiles": "CCN(CC)S(=O)(=O)c1ccc2oc(C(=O)NC3CC3)c(C)c2c1", "Potency": "active: 10.3 µM"}, {"smiles": "CCCCCSc1nnc(-c2cc(Br)ccc2N)c(=O)[nH]1", "activity change, negative = growth inhibition": "inactive: -23.3%"}, {"smiles": "Cc1ccc(NC(c2ccc(Cl)cc2)c2nnc(-c3cccc(F)c3)o2)cc1C", "note": "(stereo not given)", "Potency": "inconclusive: 18.4 µM [inhibitor, single point]"}, {"smiles": "COc1ccc2cc3[n+](cc2c1O)CCc1cc2c(cc1-3)OCO2", "Potency": "inconclusive: 29.1 µM [inhibitor, single point]"}, {"smiles": "O=C(OCc1ccc(Br)cc1)c1cnc(Cl)c(Cl)c1", "Potency": "inconclusive: 25.9 µM [inhibitor, partial curve, poor fit]"}, {"smiles": "CC1CCC(NC(=O)Cn2cnc3sccc3c2=O)CC1", "note": "(stereo not given)", "activity change, negative = growth inhibition": "inactive: 10.8%"}, {"smiles": "CC(=O)N1CCN(S(=O)(=O)c2ccc(F)c(Cl)c2)CC1", "activity change, negative = growth inhibition": "inactive: -3.79%"}, {"smiles": "COCCCNC(=O)c1nc2c(nnn2Cc2cc(C)ccc2C)c(=O)[nH]1", "Potency": "inconclusive: 3.66 µM [inhibitor, full curve]"}, {"smiles": "Cc1cc(C)cc(NC(=S)N2CCN(c3ncc(C(F)(F)F)cc3Cl)CC2)c1", "Potency": "inconclusive: 29.1 µM [inhibitor, single point]"}, {"smiles": "O=C(COC(=O)c1cc[n+]([O-])cc1)Nc1ccc([N+](=O)[O-])cc1Cl", "activity change, negative = growth inhibition": "inactive: -12.6%"}, {"smiles": "Cc1c(C(=O)CN2CCCC(C)(C)C2)c2ccccc2n1C", "Potency": "inconclusive: 4.11 µM [inhibitor, partial curve, poor fit]"}, {"smiles": "CCC(=O)N1N=C(c2cccc(NS(C)(=O)=O)c2)CC1c1cccs1", "note": "(stereo not given)", "Potency": "inconclusive: 18.4 µM [inhibitor, partial curve]"}, {"smiles": "CSc1cccc(NC(=O)Nc2nc3c(C)cccc3s2)c1", "Potency": "inconclusive: 11.6 µM [inhibitor, partial curve]"}, {"smiles": "CCCCOC(=O)c1cc(=O)[nH]c(=O)[nH]1", "activity change, negative = growth inhibition": "inactive: -1.29%"}, {"smiles": "COC(=O)C1N[C@@H]([C@@H](NC(=O)COc2ccccc2)C(=O)Nc2ccc(OC)cc2)SC1(C)C", "note": "(stereo not given in full)", "Potency": "inconclusive: 22.4 µM [inhibitor, single point] and inconclusive: 16.4 µM [inhibitor, partial curve]"}, {"smiles": "C/C(=N\\NC(=O)c1c(Br)c(C)nn1C)c1cccc(NC(=O)c2ccccc2F)c1", "Potency": "inconclusive: 23.1 µM [inhibitor, single point]"}, {"smiles": "O=C(Nc1ccc(F)cc1F)c1ccccc1-c1ccccc1", "Potency": "inconclusive: 23.1 µM [inhibitor, single point]"}, {"smiles": "O=C(O)CCC(=O)Nc1ccc2c(c1)Cc1cc(NC(=O)CCC(=O)O)ccc1-2", "activity change, negative = growth inhibition": "inactive: -24%"}, {"smiles": "Cc1cccc(OCC(=O)Nc2cc(C)c(O)c(-c3nc4ccccc4o3)c2)c1", "Potency": "inconclusive: 35.5 µM [inhibitor, single point]"}, {"smiles": "C=CCn1c(=N)n(CC(=O)c2ccccc2)c2ccccc21", "Potency": "inconclusive: 25.9 µM [inhibitor, single point]"}, {"smiles": "CONC(=O)c1cc(OCC(F)(F)F)ccc1OCC(F)(F)F", "activity change, negative = growth inhibition": "inactive: 2.93%"}, {"smiles": "O=C(OCC(=O)N1CCc2ccccc21)[C@@H]1CC(O)CN1S(=O)(=O)c1ccccc1[N+](=O)[O-]", "note": "(stereo not given in full)", "Potency": "active: 18.4 µM"}, {"smiles": "CCN(CC)c1ccc(/C=C/C(=O)c2ccc(Br)cc2)cc1", "Potency": "inconclusive: 18.4 µM [inhibitor, single point]"}, {"smiles": "Cc1noc(C)c1CSCC(=O)Nc1nc(-c2ccc(F)c(F)c2)cs1", "Potency": "active: 8.2 µM"}, {"smiles": "O=C(NCC1COc2ccccc2O1)c1ccc(-n2cncn2)c([N+](=O)[O-])c1", "note": "(stereo not given)", "Potency": "inconclusive: 7.31 µM [inhibitor, partial curve]"}, {"smiles": "COc1ccc(OC)c(CCNC(=O)c2c3c(nc4ccccc24)C(=O)N(C2CCCCC2)C3)c1", "Potency": "active: 18.4 µM"}, {"smiles": "O=C(c1ccccc1)c1cnc(Nc2ccccc2Cl)s1", "activity change, negative = growth inhibition": "inactive: -7.72%"}, {"smiles": "CC(=O)c1cnc(N(C)C)s1", "activity change, negative = growth inhibition": "inactive: -7.1%"}, {"smiles": "CSc1nc2[nH]c3c(c2c2nncn12)CC(C)(C)OC3", "Potency": "inconclusive: 29.1 µM [inhibitor, single point]"}, {"smiles": "O=C(Nc1ncccc1O)c1ccc(C(=O)c2ccccc2)cc1", "Potency": "active: 23.1 µM"}, {"smiles": "COc1ccc(-n2ncc3c2CC(C)(C)CC3NC(=O)c2ccnn2C)cc1", "note": "(stereo not given)", "activity change, negative = growth inhibition": "inactive: -23%"}, {"smiles": "CCOC(=O)C1(P(=O)(c2ccc(Cl)cc2)c2ccc(Cl)cc2)CCC1", "Potency": "inconclusive: 29.1 µM [inhibitor, single point]"}]}]}
